In PubChem BioAssay AID493208 (National Center for Advancing Translational Sciences (NCATS), 2011):
Hit rate of the full screen: of about 44,000 compounds, about 340 (0.77%) were called active. Another 5% or so got no clear call; they are omitted. Calls come from the whole dose curve; as a rule, active = well fitted inhibition curve with a large enough effect; inconclusive = small, poorly fitted or top-dose-only effect; inactive = flat fitted curve, though single readings scatter. The list shows a part of the results.

test: Acumen qHTS Assay for Inhibitors of the mTORC1 Signaling Pathway in MEF (Tsc2-/-, p53-/-) Cells: Sytravon; conditions: phospho-rpS6 immunofluorescence/PI, 24 h; series mostly up to 38.3 µM; activity change, negative = inhibition: at the top concentration;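 note: plate controls were DMSO for no effect and rapamycin for full effect; nearly all actives have a fitted effect of over 50% in size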
Outline: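 Tsc2-/-, p53-/- MEFs (empty-vector stable line) in DMEM + 10% FBS were treated with compounds 24 h at 37 degree Celsius, fixed, and immunostained for phospho-rpS6 (Alexa-488) with propidium iodide counterstain. Laser-scanning cytometry gave % positive cells, normalized against 7.5 nM rapamycin and DMSO.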

Activity change, negative = inhibition, inactive:
CCOC(=O)c1c(C)[nH]c(C)c1S(=O)(=O)N1CCC(C(=O)Nc2ccc(F)cc2F)CC1 0.724%, CC(=O)c1ccc(NC(=O)c2ccc3c(c2)N(Cc2cccc(Cl)c2)C(=O)c2ccccc2S3(=O)=O)cc1 -4.11%, COc1ccc(CNC(=O)Cn2ccc3cc(S(=O)(=O)N4CCCCC4)ccc32)c(OC)c1 -10%, Cc1ccc(NC(=O)CN2CCCN(Cc3ccccc3Cl)S2(=O)=O)c(C)c1 -0.439%, COc1ccccc1CNC(=O)CCc1c(C)nc2cc(-c3ccccc3OC)nn2c1C -9.64%, Cc1cc(Cl)ccc1NC(=O)CN1C(=O)CSc2ccc(S(=O)(=O)N(C)C)cc21 -2.34%, CCOCCc1nn2c(=O)cc(COC(=O)COc3ccccc3Cl)nc2s1 -14.5%, CCOc1ccc(C2c3[nH]c4ccccc4c3CCN2C(=O)Cc2cccc(OCC)c2OCC)cc1 (centres undefined) -11.2%, Cc1ccccc1Cn1nnc2c(=O)[nH]c(C3CCN(C(=O)c4ccccc4)CC3)nc21 4.51%, CCOC(=O)c1cnc2ccc(C(=O)OC)cc2c1Nc1ccccc1CC -24.7%, Cc1cc(C)cc(-n2ccnc2SCC(=O)Nc2nc3ccccc3s2)c1 -1.28%, COc1ccc(-c2nc3sc(CCNC(=O)c4cccc(C(F)(F)F)c4)c(C)n3n2)cc1 3.14%, CCC(C(=O)NCc1ccccc1OC)n1nc(C)n2c(cc3sccc32)c1=O (centres undefined) -6.02%, CCOC(=O)c1c(S(=O)(=O)NCC(=O)Nc2ccc(C)c(Cl)c2)c(C)n(C)c1C 0.548%, CC(C)(C)n1cnc2cc(NCc3ccccc3Cl)ccc21 -11.9%, COc1ccc(NC(=O)C2CCCN2S(=O)(=O)c2cccc3cccnc23)cc1OC (centres undefined) 2.96%, CC(C)Oc1ccc(CNC(=O)c2ccc(NC(=O)N3CCSc4ncccc43)cc2)cc1 0.0523%, CN(C)c1ccc(CNC(=O)C2CCN(S(=O)(=O)c3ccc4c(ccn4C)c3)CC2)cc1 -0.892%, Cc1ccc(C)c(Nc2nn3c(=O)c4ccc(C(=O)NCCc5ccccc5)cc4nc3s2)c1 1.4%, Cc1n[nH]c(C)c1S(=O)(=O)N1CCCC(C(=O)Nc2ccc(Cl)cc2)C1 (centres undefined) -17.7%, CCN(C(=O)Cn1cc(S(=O)(=O)Cc2ccccc2Cl)c2ccccc21)c1ccccc1 -0.265%, Cc1ccc(C)c(N2CCN(C(=O)Cn3c(-c4cccs4)cc4ccccc43)CC2)c1 -17.8%, CCOC(=O)c1ccc(NC(=O)C(CC)Sc2nc3ncccc3o2)cc1 (centres undefined) -5.15%, Cc1ccc(N2CCN(C(=O)c3c4c(nc5ccccc35)C(=O)N(C3CCCCC3)C4)CC2)c(C)c1 8.42%, COc1ccc(C(=O)Nc2nc3c(s2)CCc2cc(OC)ccc2-3)cc1 -1.32%, COCCCn1c(SCC(=O)NCc2ccccc2)nc2c(sc3ccccc32)c1=O 1.21%, CCCCNc1nc(Oc2ccc(OCC(N)=O)nn2)nc(N2CCOCC2)n1 -1.36%, Cc1ccc(-n2ncc3c(N4CCN(CCO)CC4)ncnc32)cc1Cl 16.2%, CCOc1cc(C2c3c(oc4ccc(F)cc4c3=O)C(=O)N2Cc2ccco2)ccc1O (centres undefined) -1.46%, Cc1ccc(-n2c(SCC(=O)Nc3ccc4c(c3)OCO4)nc3c([nH]c4ccccc43)c2=O)cc1 -6.11%, Cc1ccc(-c2cc(C(=O)NCc3cnn(C)c3)c3cc(Br)ccc3n2)cc1 -17%, CCc1ccccc1N(C)C(=O)c1cnc(N2CCOCC2)c2ccccc12 -4.84%, Cc1cccc(C(=O)N2CCc3cc(CNC(=O)Cc4ccc(F)cc4)ccc32)c1 -9.66%, Cc1cc(Br)ccc1NC(=O)c1cn(C2CCCC2)c(=O)c2c1c1ccccc1n2C -3.99%, Cc1ccc(Cc2nc3ccccc3nc2SCC(=O)NCc2ccc(F)cc2)cc1 -0.0206%, COc1ccc(CCNc2ncnc3c2c(-c2ccccc2)cn3-c2ccc(F)cc2)cc1OC 0.605%, CCC(=O)C1=C(c2cccc([N+](=O)[O-])c2)N(C(=O)CC)n2c(nnc2-c2ccccc2)S1 -3.19%, Cc1ccc2oc(=O)c3cnn(CC(=O)N4CCN(c5cc(Cl)ccc5C)CC4)c3c2c1 -1.84%, COc1ccc(CCNC(=O)Cn2c(=O)n(-c3cc(OC)c(OC)c(OC)c3)c(=O)c3ccccc32)cc1OC 9.56%, COc1cccc(CNc2nc3c(-c4ccccc4)nnn3c3ccccc23)c1 -1.37%, CCOc1ccc(NC(=O)c2cc(S(=O)(=O)N3CCCCC3)c[nH]2)cc1 -4.67%, CN(Cc1ccccc1)C(=O)CSc1nc2ccsc2c(=O)n1-c1ccc(F)cc1 -1.86%, COc1cccc(NS(=O)(=O)c2ccc3[nH]cc(C(=O)NCCc4ccccc4)c(=O)c3c2)c1 0.0814%, COc1ccc(NC(=O)CCc2nnc3n(C)c(=O)c4sccc4n23)cc1Cl 5.35%, CCn1cc(C(=O)NCCCN(CC(C)C)CC(C)C)c(=O)c2cc(S(=O)(=O)N(C)C3CCCCC3)ccc21 -5.16%, COc1cccc(N2C(=O)N(Cc3ccc(C#N)cc3)c3ccccc3S2(=O)=O)c1 -4.32%, CCc1ccccc1NC(=O)Cn1c(=O)n(CC2CCC(C(=O)NCCc3ccccc3)CC2)c(=O)c2ccccc21 (centres undefined) -15.7%, CCC(=O)N1CCc2cc(Br)cc(S(=O)(=O)CCC(=O)Nc3ccc(C)c(C)c3)c21 0.214%, COc1ccc(-c2noc(-c3ccc(NCc4cccnc4)c([N+](=O)[O-])c3)n2)cc1 -1%, O=C(NCc1ccccc1Cl)c1cnc2sc(N3CCOCC3)nn2c1=O 3.88%, COc1ccc(C2=NS(=O)(=O)N(C)C(C(=O)NCc3ccccc3)=C2)cc1OC 0.497%, COc1ccc(-c2cc(C(=O)Nc3ccn(Cc4ccc(C)cc4)n3)no2)cc1OC -15%, CCc1ccc(NC(=O)C(=O)NCC(c2ccc3c(c2)OCO3)N2CCOCC2)cc1 (centres undefined) -6.84%, Cc1ccc(S(=O)(=O)c2nc(-c3ccccc3Cl)oc2N2CCCCCC2)cc1 -98.5%, CCS(=O)(=O)N1CCC(n2c(C)nc3cccnc32)CC1 1.07%, Cc1ccc(Cl)c(NC(=O)Nc2csc3c2CCCC3)c1 -8.24%, CN1C(=O)c2ccccc2Sc2ccc(NC(=O)COc3ccccc3)cc21 -18.8%, COc1cc2oc(=O)c(CC(=O)N3CCCCC3)c(C)c2cc1OC 0.556%, COc1ccc(C(=O)/C=C/c2cn(CC(O)CN(CC(C)C)CC(C)C)c3ccccc23)cc1 (centres undefined) -9.63%, CCOC(=O)c1nc(N2CCN(c3ccc(F)cc3)CC2)c2c(C)noc2n1 0.473%, CCCC(=O)N(c1ccc2oc(C)c(C(C)=O)c2c1)S(=O)(=O)c1ccc(C)cc1 -3.51%, CCn1c(=O)n(-c2ccc(F)c(Cl)c2)c(=O)c2c3c(sc21)CN(C(C)=O)CC3 0.278%, COc1cccc(C(=O)Nc2ccc(-c3nc4ccccc4s3)cc2Cl)c1 1.14%, COc1cccc(N2C(=O)CSC23C(=O)N(Cc2ccccc2)c2ccccc23)c1 (centres undefined) 1.9%, Cc1ccc(C)c(CSc2cn(CC(=O)N3CCCCCC3)c3ccccc23)c1 -0.55%, COc1ccc(NC(=O)CCCc2nnc3n(CCC(C)C)c(=O)c4sccc4n23)c(OC)c1 4.45%, COc1ccc(-c2csc3nc(-c4ccc(F)cc4)oc(=O)c23)cc1 -2.1%, COCCNC(=O)c1ccc(-n2c(-c3ccccc3)cc3c2CCCCC3)cc1 0%, Cc1ccccc1-n1c(=O)c2c3c(sc2n2cnnc12)CCCC3 -6.48%, COc1ccc(CNC(=O)C2CCN(c3nnc(-n4cccc4CNc4ccc(C)cc4)s3)CC2)c(OC)c1 4.07%, Cc1ccc(S(=O)(=O)c2nc(-c3cccc(C)c3)oc2N2CCCCC2)cc1 -4.13%, O=S(=O)(c1ccc(F)cc1)N1CCC(n2c(C(F)(F)F)nc3cccnc32)CC1 0%, O=S(=O)(Nc1cccc(-c2ccc(N3CCCC3)nn2)c1)c1ccc(F)cc1F 0.612%, COc1ccc(N2CCN(C(=O)CN(C)S(=O)(=O)c3cccs3)CC2)cc1 -20%, COc1ccc(Cn2ccnc2SCC(=O)Nc2cc(C(F)(F)F)ccc2Cl)cc1 0.0302%, CCN(CC)C(=O)Cn1c(=O)cc(C)c2c(C)nn(C)c21 -16.8%, CCOC(=O)c1ccccc1NC(=O)c1sc2ccccc2c1Cl -5.21%, COc1ccc(-c2cn3nc(N4CCCC(C(=O)NCc5ccccc5C)C4)sc3n2)cc1 (centres undefined) -0.125%, O=C(CN(CCc1ccccc1)S(=O)(=O)c1ccccc1)NCc1ccc(Cl)cc1 9.63%, Cc1ccc(Cl)cc1N1CCN(C(=O)c2cc(S(=O)(=O)N3CCCCCC3)cn2C)CC1 -2.39%, Cc1cc(Cl)ccc1Nc1ncnc2onc(C)c12 -3.37%, O=C(Nc1ccccc1Cl)C1CCN(c2nc3ccccc3[nH]2)CC1 6.81%, COc1cccc(NC(=O)CSCn2nnc3c(=O)[nH]c(Cc4ccc(F)cc4)nc32)c1 5.67%, CN(Cc1ccc(F)cc1)S(=O)(=O)c1nnc(NC(=O)c2ccc(F)cc2)s1 0.68%, Fc1ccccc1OCc1nc(-c2ccc(-n3cccc3)cc2)no1 1.99%, COC(=O)c1ccc2c(c1)N(CC(=O)Nc1cccc(C(F)(F)F)c1)C(=O)c1ccccc1S2 0%, O=C(CSc1nc2c([nH]c3ccccc32)c(=O)n1-c1ccccc1F)Nc1ccccc1C(F)(F)F -0.289%, COc1ccc(NC(=O)C2CCCN(S(=O)(=O)c3ccc4c(c3)CCCN4C(C)=O)C2)cc1 (centres undefined) 1.32%, Cc1ccc2c(c1)CC(C)N2S(=O)(=O)c1nnc(NC(=O)c2ccccc2F)s1 (centres undefined) 4.36%, CC(C)c1ccccc1NC(=O)CN(c1ccccc1)S(=O)(=O)N(C)C 7.25%, O=C(NCCCN1CCN(c2ccc(F)cc2)CC1)c1sc2ncccc2c1-n1cccc1 -12.7%, O=C(Cn1ccn(-c2cccc(Cl)c2)c(=O)c1=O)c1ccc(F)cc1 10.4%, Cc1ccc(NC(=O)CCS(=O)(=O)c2ccc(Br)cc2)c(C)c1 -1.15%, CCOc1ccc(CNC(=O)c2[nH]c3ccccc3c2Sc2ccc(C)cc2)cc1 -21%
